# Reference: the antibiotic and cytotoxicity screens of Wong et al. (2023)
# The other results are listed elsewhere or left out.
# What was measured:
# [1] = system: HSkMC (human skeletal muscle cells); assay: cytotoxicity call (relative viability < 0.9); settings: 10 µM
# [2] = system: HepG2; assay: cytotoxicity call (relative viability < 0.9); settings: 10 µM
# [3] = system: S. aureus RN4220; assay: growth inhibition call (relative growth <= 0.2); settings: 50 µM
SMILES,cytotoxicity call [1],cytotoxicity call [2],growth inhibition call [3]
COc1ccc(C=CC(=O)c2cc(O)ccc2O)cc1,inactive,active,inactive
C[C@@H]1CN([C@H](C)CO)C(=O)c2cc(NS(=O)(=O)c3ccc(F)cc3)ccc2O[C@@H](C)CCCCO[C@@H]1CN(C)C(=O)Cc1ccccc1,inactive,inactive,inactive
CO[C@H]1C[C@@H](C[C@@H](C)[C@H]2CC(=O)[C@H](C)/C=C(\C)[C@@H](O)[C@H](OC)C(=O)[C@H](C)C[C@H](C)/C=C/C=C\C=C(C)[C@H](OC)C[C@@H]3CC[C@@H](C)[C@@](O)(O3)C(=O)C(=O)N3CCCC[C@H]3C(=O)O2)CC[C@H]1OC(=O)C(C)(CO)CO,inactive,active,inactive
COc1ccc(NC(=O)Nc2ccc3c(c2)CC(=O)N([C@H](C)CO)C[C@@H](C)[C@@H](CN(C)Cc2ccc(-c4ccccc4)cc2)O3)cc1,inactive,active,inactive
C[C@@H]1CCCCO[C@@H](CN(C)S(=O)(=O)c2ccc(Cl)cc2)[C@H](C)CN([C@H](C)CO)C(=O)c2cc(NS(=O)(=O)c3ccc(Cl)cc3)ccc2O1,inactive,active,inactive
COC1CC(OC2C(C)OC(OC3C(C)=CCC4CC(CC5(C=CC(C)C(C6CCCCC6)O5)O4)OC(=O)C4C=C(C)C(O)C5OCC(=CC=CC3C)C45O)CC2OC)OC(C)C1O (stereo unspecified),inactive,inactive,inactive
C[C@H]1CCCCO[C@H](CN(C)C(=O)Nc2ccc(F)cc2)[C@@H](C)CN([C@@H](C)CO)C(=O)c2cc(NC(=O)c3ccncc3)ccc2O1,inactive,inactive,inactive
C[C@@H]1CN([C@@H](C)CO)C(=O)c2cc(C#C[C@@H](C)O)cnc2O[C@H]1CN(C)C(=O)Nc1ccc(C(F)(F)F)cc1,inactive,inactive,inactive
COc1ccc(CN(C)C[C@H]2Oc3ccc(NC(=O)Cn4cnnn4)cc3C(=O)N([C@@H](C)CO)C[C@@H]2C)cc1,inactive,inactive,inactive
NCC[C@H]1CC[C@@H](NC(=O)NC2CCCCC2)[C@@H](CO)O1,inactive,inactive,inactive
O=C(C[C@@H]1CC[C@H]2NC[C@@H](O)COC[C@@H]2O1)NCCN1CCCC1,inactive,inactive,inactive
CCCNC(=O)N(C)C[C@@H]1Oc2cc(-c3ccc(C)cc3)ccc2S(=O)(=O)N([C@@H](C)CO)C[C@H]1C,inactive,inactive,inactive
COc1ccc(NC(=O)Nc2ccc3c(c2)C(=O)N([C@@H](C)CO)C[C@H](C)[C@H](CN(C)C(=O)Nc2ccc(C(F)(F)F)cc2)O3)cc1,inactive,inactive,inactive
C[C@@H]1CCCCO[C@@H](CN(C)Cc2ccc(C(=O)Nc3ccccc3N)cc2)[C@@H](C)CN([C@H](C)CO)C(=O)c2cc(NC(=O)Nc3cccc4ccccc34)ccc2O1,inactive,inactive,inactive
O=C(c1ccncc1)N1C[C@H]2[C@@H](c3ccccc31)[C@H](CO)N2C(=O)CN1CCOCC1,inactive,inactive,inactive
C[C@@H]1CN([C@@H](C)CO)S(=O)(=O)c2ccc(C#CC3CC3)cc2O[C@@H]1CN(C)C(=O)c1cccc(F)c1,inactive,inactive,inactive
C[C@H](CO)N1C[C@H](C)[C@@H](CN(C)S(=O)(=O)c2cn(C)cn2)Oc2cc(C#Cc3ccccc3)ccc2S1(=O)=O,inactive,inactive,inactive
Cc1noc(C)c1NC(=O)N(C)C[C@H]1OCCCC[C@H](C)Oc2ccc(NC(=O)c3ccccc3)cc2C(=O)N([C@H](C)CO)C[C@@H]1C,inactive,inactive,inactive
C[C@@H]1CCCCO[C@@H](CN(C)C(=O)NC2CCCCC2)[C@@H](C)CN([C@H](C)CO)C(=O)c2cc(NS(=O)(=O)c3ccc(F)cc3)ccc2O1,inactive,inactive,inactive
COc1ccc(NC(=O)Nc2ccc3c(c2)CC(=O)N([C@@H](C)CO)C[C@H](C)[C@@H](CN(C)S(C)(=O)=O)O3)cc1,inactive,inactive,inactive
CCO[C@@H]1OC(C(=O)N2CCCCCCC2)=C[C@H](c2coc3ccccc3c2=O)[C@H]1CCCOC(=O)NCCCCCC(=O)NO,inactive,inactive,inactive
C[C@@H]1CCCCO[C@H](CN(C)C(=O)Nc2ccc3c(c2)OCO3)[C@H](C)CN([C@@H](C)CO)C(=O)c2cc(NC(=O)Nc3ccc4c(c3)OCO4)ccc2O1,inactive,inactive,inactive
